The other results are listed elsewhere or left out.
Tested on: PF3D7_0420300 AP2 domain 1 (GST-tagged)
Experiment: gcPBM binding intensity (ln(normalized median fluorescence intensity)); higher = stronger DNA binding
How it was run: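 Plasmodium falciparum DNA-binding domains carrying a GST tag were expressed in E. coli and applied for 1 h, at about 25 μg on average, to an Agilent 4 × 180k array. The array held primer-extended double-stranded 36-bp intergenic genomic probes together with negative controls, and binding took place in 1× PBS with 1% milk, 0.2 mg/ml BSA, 0.5% salmon testes DNA and 0.03% Triton X-100. An Alexa488 anti-GST antibody detected bound protein, and the array was scanned at 488 nm. Binding intensity is taken as the highest Masliner-normalised natural-log median intensity across replicate spots of either probe orientation.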

Sequence	gcPBM binding intensity (ln)
GTATGTGTATGTGTATGTACATATGTATGTATAAAA [XGTACX_site8191]	9.37
TTTTGTATATATCACATTAAAAGAAAAAAATATATG [GTGCAC_negctrl_site120]	9
TATATATATTTCCAGTGTACTTATTTTTTAATCAAT [XGTACX_site8220]	9.42
TCCTCAAAAAAATAAAATAATTTATACTTTTTTAAA [GTGCAC_negctrl_site724]	8.68
TTCTCAAAGAAGAAAAAGTTTTTTTAATTTTTCTTT [XGTACX_negctrl_site543]	8.67
AATAAAAAATATAACACAAATATGTATATATATATA [TGCATGCA_negctrl_site245]	9.19
ACATATAAAATGTATACACACAAATATTACATATAT [CACACA_site1472]	9.59
CAAAAAAAAAAAAAAAATAAATAAAGGAAATAAAAA [CACACA_negctrl_site20]	9.05
AACCAATTATATTTACGTACGTACGGTTTTTTATAT [XGTACX_site1291]	9.72
ATATATTAATATACTCGTACATATTCTTATTGTGTA [XGTACX_site3728]	9.36
AATATATTTTTTTTTTGTACATATTGTAAAATAATA [XGTACX_site6805]	9.09
GTGTAGTTAAAAAAAAGTACAGATTTTTTTTTTTTT [XGTACX_site849]	8.99
ATAGAATATTGATATTGTACGTTATCTTAAAACAAT [XGTACX_site1702]	9.09
AAAAAAAAAAAAACAAGTACAAAGGATAGAAAAAAA [XGTACX_site4133]	9.61
ATAAGAACGTCTATGTGTACGCAGCAAAACTGAGTT [XGTACX_site6385]	9.25
TTGTATTACATAAATGTTCTTTATTATTTGATAAAA [CACACA_negctrl_site903]	8.78
TATATAATATATTAATGTACTTAAAATATATTCTAT [XGTACX_site1235]	9.07
TAAAATATATTGCCAGTGCATAATATATGTAATTAT	9.22
TTTTTTAAATATTAAAAATGGGATCTTATAACATAT [GTGCAC_negctrl_site666]	8.76
TGTATAAACCCACGTACACACACTAAGTATATCCAA [CACACA_site1605]	9.67
TAAACAAATAAATAAACACACAATATAGGTATATAT [CACACA_site7739]	9.72
AACTAATAAAAAAAAAAAACATTAAACAGGACAAAT [XGTACX_negctrl_site287]	9.78
TTATTTTTAACGTACGCACACATATAAATATATTTA [CACACA_site1976]	9.43

Sequence	gcPBM binding intensity (ln)
TTGTTTTTAGTTTATACACACCATATTAAAATAATG [CACACA_site5675]	9.36
AATAAAATATACTATTGTACATATGGAACTACTTGA [XGTACX_site8928]	9.41
ATTTATTATATATAGTGTACGTTCTTAATTATAATT [XGTACX_site7480]	9.4
TTATAAAAATACAGTTAACACACATGTGTATATATA [CACACA_site9257]	9.48
GATCGCATGAAATGAACACACATAAAAAAAATATAC [CACACA_site4087]	9.51
AAAAAAAAAATATACACACACACATACCCATAAATA [CACACA_site5981]	9.99
AAAATAATCTTATGCACACCAAAAATTTATATAATC [CACACA_site1235]	9.43
TAATGCAACATTTATGTGCACATAAATATTTTTTAA	9.02
AAAACACAATTTATTACACACATATATTATAGATTA [CACACA_site6780]	9.68
TTTATTTTAAATTTACGTACATAATTAATCATATTT [XGTACX_site7529]	9.23
ATAAAAAATTAGGACTGTACATAATTTTTGTGATTT [XGTACX_site2857]	9.23
TATATATATAAGGATAGTACATATATTTATATGATT [XGTACX_site4954]	9.19
GTATAATAAATGATAGCACACATATGTACTTATATA [CACACA_site8188]	9.4
AAAATTATAAAATGGGCACACATGAATATTGTAGTA [CACACA_site5261]	9.62
ATGAAATTTATATCATGTACATACAAGAGAAAAAAA [XGTACX_site3326]	9.32
AGGTTATAATTGTTTTCACACATTTAAAAATGTTAT [CACACA_site5097]	9.39
TTAACTTATTTGTAAAGTACATTAATAAAAAGAAAA [XGTACX_site1588]	8.76
GACTACACACAAGGGTGTACATATATATTATATATA [XGTACX_site2247]	9.44
TTATATATTTCTATTGCACACTATATTTTATGAAGA [CACACA_site2910]	9.32
AATAAATAAATAAATATATATATATATATATATATA [CACACA_negctrl_site708]	8.86
ATATATATATATAATGCACACATTATAAATTATGTA [CACACA_site5802]	9.18
TGTATATACATAAAGTGTACGTATATTTATATATAT [XGTACX_site4320]	9.17

Source: the supplement of paper PMC11417369
